Here are results for 58 compounds from ChEMBL document CHEMBL1201862, “PubChem BioAssay data set” (2004).

Each structure is given as a SMILES string.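 Cells were grown in 96-well plates and exposed to each compound for 48 hours at five concentrations; endpoints were interpolated linearly between bracketing concentrations, or set to the highest concentration if not reached. The concentration for 50% growth inhibition is given as GI50.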 Calls of active or inactive are those of the source. Rule as the data show it: active = GI50 up to about 1.1 µM and inactive = higher. Bounds are passed on as bounds.

This experiment deals with NCI-H322M. As to the kind of experiment: NCI tumour cell line growth inhibition, 48 h.
Consider `COC(=O)Cc1c(-c2[nH]c3ccccc3c2CC(=O)OC)[nH]c2ccccc12`, for which the GI50 was inactive: > 52.6 µM. For `N#CCN(Cc1ccccc1)[C@@H]1CCC[C@]1(O)C#Cc1ccc2c(c1)OCO2`, the GI50 was inactive: 17.7 µM. As to `O=C(Nc1sccc1S(=O)(=O)c1ccccc1)c1cccnc1`, the GI50 was inactive: 40.9 µM.

On to `COc1nc(N)c(NC(C)=O)c(=O)n1C`, for which the GI50 is inactive: > 100 µM. Take `O=[N+]([O-])c1ccc(NS(=O)(=O)C(F)(F)F)cc1`: the GI50 is inactive: > 100 µM. On to `COC(=O)/C=C(\C(=O)OC)c1cc(C)c2cc(C(C)C)ccc(C)c1-2`, for which the GI50 is inactive: > 100 µM. With `Cc1nc2ccccc2n1Cc1ccc(NC(=S)NC2CCCCC2)cc1`, the GI50 is inactive: 25.5 µM. Consider `COc1cc2c(cc1OCCCCCOc1cc3c(cc1OC)C(=O)N1CCC[C@H]1CN3)N=C[C@@H]1CCCN1C2=O`, for which the GI50 is inactive: 14.3 µM.

On to `O=C1/C(=C/c2ccco2)NC(=S)N1CN1CCCCC1`, for which the GI50 is inactive: > 100 µM. Take `COc1ccc(C2=CN3CCC[C@H]3C=C2c2cc(O)c(OC)c(OC)c2)cc1OC`: the GI50 was active: 0.00405 µM. With `COC(=O)C(=O)C(C(=O)C(=O)Nc1ccccc1C(=O)OC)c1nc2ccc(C(=O)c3ccccc3)cc2nc1O` (stereo not drawn), the GI50 was inactive: > 100 µM. `Cc1cc(=O)[nH]c2cc(NC(=O)C(CCCNC(=N)N)NC(=O)OCc3ccccc3)ccc12` (stereo not drawn): the GI50 was inactive: > 100 µM. As for `Nc1ccc(C(=O)NN2C(=O)C(Cl)C2c2cc(Br)ccc2O)cc1` (stereo not drawn), the GI50 was inactive: > 100 µM. The same measure for `CCNC1C2(CCCCC2)NC(=O)C12CCCCC2` (stereo not drawn): inactive: > 100 µM. For `Cc1cc(N)ccc1/N=N\c1ccc(S(=O)(=O)CCOS(=O)(=O)O)cc1`, the GI50 is inactive: 11.6 µM. The same measure for `N#Cc1ccccc1/C=N/O`: inactive: > 100 µM; for `CC(C)OCN/C(N)=N\C#N`: inactive: > 100 µM. `CC(=O)OCc1nc(C#N)c(N)o1`: the GI50 is inactive: > 100 µM. The result for `N#C/C(=C1\OC(=N)C(c2ccc(Cl)cc2Cl)C1=O)c1ccc(Cl)cc1Cl` (stereo not drawn) reads inactive: > 100 µM. In the case of `O=C1CCC2(c3ccc(Cl)cc3)Nc3ncccc3N12` (stereo not drawn), the GI50 is inactive: > 100 µM. Turning to `COc1ccc(NC(=O)CC(=O)N2N=C(C)C(/N=N/c3ccc(C(=O)O)cc3)C2=O)cc1` (stereo not drawn), the GI50 was inactive: > 100 µM. The result for `Cc1ccc(-c2c(C#N)c(-c3ccc(N(C)C)cc3)c(C#N)c(=O)n2NS(=O)(=O)c2ccccc2)cc1` reads inactive: 91.8 µM; that for `O=C(O)c1nc2ccc(Cl)cc2[nH]c1=O`, inactive: > 100 µM; that for `Cc1cc(C)c2c(c1)Nc1ccccc1P2c1ccccc1` (stereo not drawn), inactive: 33 µM. As for `CC/C(Cl)=N\OC(=O)Nc1ccc(F)c([N+](=O)[O-])c1`, the GI50 is inactive: 31.7 µM. `Cc1ccc(-c2n[nH]c(=O)[nH]2)cc1[N+](=O)[O-]`: the GI50 was inactive: > 100 µM. Regarding `C[C@H](NC(=O)c1ccc(CNC(=O)/C=C/c2cccc(Oc3ccccc3)c2)cc1)c1ccccc1`, the GI50 is inactive: > 100 µM.

For `NC(=O)NC(=O)c1cccc(NC(=O)CCl)c1`, the GI50 was inactive: 1.34 µM. Turning to `CC(C)(C)OC(=O)CN1CCNCCN(CC(=O)OC(C)(C)C)CCNCC1`, the GI50 was inactive: 62.5 µM. With `CC(=O)/C=C1\Nc2ccc([N+](=O)[O-])cc2N\C1=C/C(C)=O`, the GI50 is inactive: 39.8 µM. In the case of `COC(=O)/C1=C/C=C\C[C@@]2(C)CC(c3ccoc3)OC(=O)[C@@H]2CC[C@H]1C` (stereo partly drawn), the GI50 is inactive: > 25 µM.

Consider `COC(=O)C(=O)CC(=O)CCn1[nH]c(=O)c(Cl)c(Cl)c1=O`, for which the GI50 is inactive: > 100 µM.

On to `O=C1c2cc(Cc3ccccc3)c(=O)c(Cc3ccccc3)cc2C(=O)c2cc(Cc3ccccc3)c(=O)c(Cc3ccccc3)cc21`, for which the GI50 was inactive: > 100 µM. With `CCOC(=O)c1c(SC)nc(-c2ccc(Cl)cc2)sc1=N.[O-][Cl+3]([O-])([O-])O`, the GI50 was inactive: 27.6 µM. The result for `O=C1C2CC(Cl)C(SSC3CC4C(=O)N(SC(Cl)(Cl)C(Cl)Cl)C(=O)C4CC3Cl)CC2C(=O)N1SC(Cl)(Cl)C(Cl)Cl` (stereo not drawn) reads active: 0.91 µM; that for `N#Cc1c(-c2ccc([N+](=O)[O-])cc2)cc(-c2ccc(Nc3ccnc4cc(C(F)(F)F)ccc34)cc2)[nH]c1=O`, inactive: > 100 µM. For `CCOc1ccc(-c2nc(-c3oc4ccccc4c(=O)c3OC(C)=O)cs2)cc1`, the GI50 is inactive: 3.81 µM. The result for `CC(=O)/C=C/C=C(\C)CC/C=C(\C)CC(C)C` reads inactive: 85.1 µM. Regarding `COc1c(OC(C)=O)c(OC(C)=O)cc2c1-c1ccc(SC)c(=O)cc1C(NC(C)=O)CC2` (stereo not drawn), the GI50 is active: 0.619 µM. The same measure for `COc1c(O)cc2ccnc3c2c1N(C)C=C3`: inactive: > 100 µM. `CCOC(CBr)OC1C(=O)OCC1(C)C` (stereo not drawn): the GI50 is inactive: > 100 µM.

In the case of `C#CC(O)/C=C/C(O)CCCC(O)CC#CC(O)C#CCCCCC(O)/C=C/CCCC(O)/C=C/CCCCCCCCCCCCCC(O)C(O)C#CC(=O)O` (stereo not drawn), the GI50 is inactive: > 25 µM. On to `OC(c1ccccc1Br)(c1ccccc1Br)C(F)(F)F`, for which the GI50 is inactive: 44 µM. For `O=C(O)c1ccccc1CC1Cc2ccc3c(c2C1=O)CCC3` (stereo not drawn), the GI50 is inactive: > 100 µM.

With `CC1=Nc2ccccc2S(=O)(=O)N1`, the GI50 was inactive: > 100 µM.

Take `CC(=O)OCC1OC(n2c(C)c(/N=N/c3ccccc3)c(C)c(C#N)c2=S)C(OC(C)=O)C(OC(C)=O)C1OC(C)=O` (stereo not drawn): the GI50 is inactive: 69 µM. `CN1C(=O)[C@@H]2[C@@H]3c4ccccc4N[C@@H]3c3[nH]c4ccccc4c3[C@@H]2C1=O`: the GI50 was inactive: 31 µM.

As to `Nc1nnc2c(-c3ccccc3)n[nH]c2n1`, the GI50 was inactive: 49.7 µM. The same measure for `CCOC(=O)c1c(-c2[nH]c(C(=O)OCc3ccccc3)c(C)c2C(=O)OCC)[nH]c(C(=O)OCc2ccccc2)c1C`: inactive: > 100 µM; for `COc1cc(-c2c3c([nH]c(=O)c2C#N)-c2cc([N+](=O)[O-])ccc2CCC3)cc(OC)c1OC`: inactive: 29.8 µM. For `O=C(O)C1=NN=C(C(=O)O)NN1`, the GI50 was inactive: > 100 µM. Turning to `O=[N+]([O-])c1cccc2c(/N=N/c3ccc4ccccc4c3O)c(O)cc(S(=O)(=O)O)c12`, the GI50 was inactive: 30.6 µM.

On to `C/C(=N\Nc1nc2ccccc2o1)c1ncccn1`, for which the GI50 was active: 0.0273 µM. The result for `COC(=O)C1=Cc2cc(OC)c(OC)c(OC)c2[C@H](c2cc(OC)c(OC)c(OC)c2)C1C(=O)OC` (stereo partly drawn) reads inactive: > 100 µM; that for `CCCCCCCCCCOCCOCCOCCOCCCCC(O)CCCCCCCC1=C[C@H](C)OC1=O` (stereo partly drawn), inactive: 11.4 µM. For the compound `O=CN1CCN(C(=O)c2ccco2)C1=S`, the GI50 is inactive: 20.7 µM. Consider `CN(C)Cc1cc(C(=O)/C=C/c2ccc(Cl)cc2Cl)cc(CN(C)C)c1O`, for which the GI50 was inactive: 3.97 µM. Regarding `COc1cc2c(cc1OC)-c1cc3cc(OC)c(OC)cc3n1CC2`, the GI50 was inactive: > 100 µM.
